Data from PubChem BioAssay (EPA / NIEHS).
Where “and” joins values, the source holds several entries; their conditions need not be identical. Identical values can stand only once. This list was built around the results that the source calls inconclusive (neither active nor inactive); the mix of calls is not that of the screen. For some of these results: Where the call is inconclusive, the potency comes from a doubtful curve fit. Calls of active or inactive are those of the source. The calls were made as follows: active = hit-call score of the fitted dose curve at least 0.9, where 1 is the maximum; inconclusive = response in the unintended direction; inactive = score below 0.9.

Tests used:
[1] = biological target: GAL4 Transcription Factor (Internal Marker), GAL4 (gene 855828) (UniProt P04386); assay: ATG_GAL4_XSP1: Attagene TRANS-FACTORIAL Multi-Species (XSP1) HepG2 Assay for GAL4 Transcription Factor (Internal Marker) (AID 2283789)
Sequence of UniProt P04386 (P04386 whole entry, looked up, the tested form may be a part): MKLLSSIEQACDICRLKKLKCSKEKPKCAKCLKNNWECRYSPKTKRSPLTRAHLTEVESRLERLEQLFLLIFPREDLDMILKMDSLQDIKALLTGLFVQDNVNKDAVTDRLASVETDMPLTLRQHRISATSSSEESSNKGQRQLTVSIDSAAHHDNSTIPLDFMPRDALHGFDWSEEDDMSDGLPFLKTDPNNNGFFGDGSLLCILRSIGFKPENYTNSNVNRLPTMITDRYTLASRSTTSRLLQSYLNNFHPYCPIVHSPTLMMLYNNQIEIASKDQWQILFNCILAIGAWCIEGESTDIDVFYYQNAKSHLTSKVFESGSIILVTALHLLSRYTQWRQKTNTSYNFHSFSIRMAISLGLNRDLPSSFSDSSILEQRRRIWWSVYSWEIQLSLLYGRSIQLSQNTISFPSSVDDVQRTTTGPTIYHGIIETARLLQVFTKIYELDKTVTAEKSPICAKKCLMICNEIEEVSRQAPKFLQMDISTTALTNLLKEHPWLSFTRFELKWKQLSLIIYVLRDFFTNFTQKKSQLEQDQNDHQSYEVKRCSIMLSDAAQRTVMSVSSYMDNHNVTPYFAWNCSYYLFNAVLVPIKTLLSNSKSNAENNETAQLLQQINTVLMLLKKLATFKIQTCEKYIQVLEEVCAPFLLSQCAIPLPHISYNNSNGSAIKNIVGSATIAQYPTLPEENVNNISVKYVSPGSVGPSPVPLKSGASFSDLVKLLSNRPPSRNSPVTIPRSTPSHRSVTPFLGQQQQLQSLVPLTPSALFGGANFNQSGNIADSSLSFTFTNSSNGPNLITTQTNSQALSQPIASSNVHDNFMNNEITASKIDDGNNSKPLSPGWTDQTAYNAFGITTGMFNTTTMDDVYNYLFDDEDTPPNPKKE
How it was run: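 HepG2 cells transiently transfected with multiplexed GAL4-UAS reporter units were exposed for 24 h with 3 nM 6-alpha-fluorotestosterone present. Reporter mRNA was quantified by RT-PCR, FAM labelling, HpaI digestion and capillary electrophoresis; background-control readout, gain-of-signal versus DMSO.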

[2] = ATG_M_61_XSP1: Attagene TRANS-FACTORIAL Multi-Species (XSP1) HepG2 Assay for M61 Transcription Factor (Internal Marker) (AID 2283797)
How it was run: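 HepG2 cells transiently transfected with multiplexed GAL4-driven reporter units, dosed 24 h with 3 nM 6-alpha-fluorotestosterone present. Reporter mRNA quantified by RT-PCR, 6-FAM labelling, HpaI digestion and capillary electrophoresis; internal-marker background control, gain of signal versus DMSO.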

[3] = test system: zebrafish Peroxisome Proliferator-activated Receptor gamma (PPARg), gene 557037; assay: ATG_zfPPARg_XSP1: Attagene TRANS-FACTORIAL Multi-Species (XSP1) HepG2 Assay for zebrafish Peroxisome Proliferator-activated Receptor gamma (PPARg) (AID 2283801)
How it was run: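 HepG2 cells transiently transfected with GAL4-UAS reporter units including a zebrafish PPARg–GAL4 chimera, dosed 24 h with 3 nM 6-alpha-fluorotestosterone present. Reporter mRNA quantified by RT-PCR, FAM labelling, HpaI digestion and capillary electrophoresis; induction versus DMSO.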

[4] = biological target: frog Thyroid hormone Receptor alpha (TRa), thra-a (gene 397942) (UniProt P15204); assay: ATG_frTRa_XSP1: Attagene TRANS-FACTORIAL Multi-Species (XSP1) HepG2 Assay for frog Thyroid hormone Receptor alpha (TRa) (AID 2283804)
Sequence of UniProt P15204 (P15204 whole entry, looked up, the tested form may be a part): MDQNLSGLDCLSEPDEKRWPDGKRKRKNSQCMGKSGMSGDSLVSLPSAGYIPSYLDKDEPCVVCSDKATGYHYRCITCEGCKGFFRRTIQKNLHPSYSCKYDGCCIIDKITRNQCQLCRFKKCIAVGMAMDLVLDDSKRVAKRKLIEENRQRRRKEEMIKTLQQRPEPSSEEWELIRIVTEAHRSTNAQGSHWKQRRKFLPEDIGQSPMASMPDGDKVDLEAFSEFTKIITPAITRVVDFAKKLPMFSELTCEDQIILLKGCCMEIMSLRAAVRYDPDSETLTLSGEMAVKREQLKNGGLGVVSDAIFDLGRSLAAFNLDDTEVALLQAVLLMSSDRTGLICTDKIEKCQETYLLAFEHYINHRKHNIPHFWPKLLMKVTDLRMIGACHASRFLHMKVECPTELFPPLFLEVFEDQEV
How it was run: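 HepG2 cells transiently transfected with frog TRa-GAL4 chimeric reporter units, dosed 24 hr with 3 nM 6-alpha-fluorotestosterone present; reporter mRNA quantified by RT-PCR, fluorescent labelling and capillary electrophoresis, gain of signal versus DMSO.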

[5] = biological target: human Thyroid hormone Receptor beta (TRb), THRB (gene 7068) (UniProt P10828); assay: ATG_hTRb_XSP1: Attagene TRANS-FACTORIAL Multi-Species (XSP1) HepG2 Assay for human Thyroid hormone Receptor beta (TRb) (AID 2283808)
Sequence of UniProt P10828 (P10828 whole entry, looked up, the tested form may be a part): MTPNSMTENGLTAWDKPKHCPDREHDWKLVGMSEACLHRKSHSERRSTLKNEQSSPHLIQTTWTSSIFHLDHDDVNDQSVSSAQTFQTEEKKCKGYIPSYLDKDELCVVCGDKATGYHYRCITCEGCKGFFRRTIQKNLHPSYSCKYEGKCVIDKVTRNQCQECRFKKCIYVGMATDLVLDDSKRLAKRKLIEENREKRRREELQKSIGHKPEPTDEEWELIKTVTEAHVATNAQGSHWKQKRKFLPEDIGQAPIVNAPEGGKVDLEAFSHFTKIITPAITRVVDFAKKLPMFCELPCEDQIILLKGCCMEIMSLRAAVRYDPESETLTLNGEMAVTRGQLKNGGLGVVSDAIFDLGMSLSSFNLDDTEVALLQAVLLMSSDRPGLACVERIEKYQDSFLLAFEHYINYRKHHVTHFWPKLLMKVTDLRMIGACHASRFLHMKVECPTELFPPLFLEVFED
How it was run: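 HepG2 cells transiently transfected with reporter units driving GAL4-UAS reporters for chimeric NR-Gal4 proteins; 24 h chemical exposure with 3 nM 6-alpha-fluorotestosterone present. Reporter mRNA quantified by RT-PCR and capillary electrophoresis, gain of signal versus DMSO.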

[6] = ATG_XTT_Cytotoxicity_XSP1: Cytotoxicity Assessment in the Attagene TRANS-FACTORIAL Multi-Species (XSP1) HepG2 Assay (AID 2283810)
How it was run: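 XTT viability readout taken at 24 hours post-dosing in HepG2 liver cells co-treated with 3 nM 6-alpha-fluorotestosterone. Signal loss relative to DMSO controls reflects cytotoxicity.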

[7] = ATG_M_06_XSP2: Attagene TRANS-FACTORIAL Multi-Species (XSP2) HepG2 Assay for M06 Transcription Factor (Internal Marker) (AID 2283811);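 also: hits are increases in signal above the DMSO baseline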
How it was run: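 HepG2 cells transiently transfected with GAL4-UAS multi-reporter constructs, dosed 24 h with 3 nM 6-alpha-fluorotestosterone plus 1.5 nM norgestrel present to stimulate androgen receptor. Reporter mRNA quantified by RT-PCR, 6-FAM labelling, HpaI digestion and capillary electrophoresis; gain-of-signal fitted versus DMSO baseline.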

[8] = test system: turtle Androgen Receptor (AR), gene 101947425; assay: ATG_trAR_XSP2: Attagene TRANS-FACTORIAL Multi-Species (XSP2) HepG2 Assay for turtle Androgen Receptor (AR) (AID 2283815);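 also: reporter mRNA from a Gal4 chimera of turtle AR measured by RT-PCR; potency for gain of reporter signal meaning activation above DMSO baseline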
How it was run: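 HepG2 cells transiently transfected with GAL4-UAS reporter units for chimeric NR-Gal4 receptors; 24 h dosing in presence of 3 nM 6-alpha-fluorotestosterone and 1.5 nM norgestrel. Reporter mRNA by RT-PCR and capillary electrophoresis, gain of signal versus DMSO.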

[9] = ATG_M_06_XSP1: Attagene TRANS-FACTORIAL Multi-Species (XSP1) HepG2 Assay for M06 Transcription Factor (Internal Marker) (AID 2283790)
How it was run: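 Transfected HepG2 multi-reporter system treated 24 h in the presence of 3 nM 6-alpha-fluorotestosterone. The M06 internal marker transcript was quantified by RT-PCR with capillary electrophoresis as a background control, and gain of signal was scored versus DMSO.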

[10] = ATG_M_32_XSP1: Attagene TRANS-FACTORIAL Multi-Species (XSP1) HepG2 Assay for M32 Transcription Factor (Internal Marker) (AID 2283799)
How it was run: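 HepG2 cells transiently transfected with multi-species TRANS reporter units, dosed 24 h with 3 nM 6-alpha-fluorotestosterone present. Internal-marker reporter mRNA quantified by RT-PCR and capillary electrophoresis; positive-direction fit versus DMSO.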

[11] = biological target: zebrafish Thyroid Hormone Receptor alpha (TRa), thraa (gene 30670) (UniProt Q98867); assay: ATG_zfTRa_XSP1: Attagene TRANS-FACTORIAL Multi-Species (XSP1) HepG2 Assay for zebrafish Thyroid Hormone Receptor alpha (TRa) (AID 2283807)
Sequence of UniProt Q98867 (Q98867 whole entry, looked up, the tested form may be a part): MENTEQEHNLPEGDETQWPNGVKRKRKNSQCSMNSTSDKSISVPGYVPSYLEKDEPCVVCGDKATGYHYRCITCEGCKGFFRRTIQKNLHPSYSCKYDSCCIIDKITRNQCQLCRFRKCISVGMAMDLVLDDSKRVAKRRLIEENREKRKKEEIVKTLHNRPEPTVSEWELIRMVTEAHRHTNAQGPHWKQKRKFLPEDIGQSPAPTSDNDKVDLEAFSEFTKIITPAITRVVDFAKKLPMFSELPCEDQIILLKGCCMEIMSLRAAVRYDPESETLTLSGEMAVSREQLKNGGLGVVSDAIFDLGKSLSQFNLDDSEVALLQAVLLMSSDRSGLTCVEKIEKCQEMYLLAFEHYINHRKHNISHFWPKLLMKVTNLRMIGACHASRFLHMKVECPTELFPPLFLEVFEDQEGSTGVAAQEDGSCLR
How it was run: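 HepG2 cells transiently transfected with GAL4-UAS reporter units including a zebrafish TRa–Gal4 chimera, dosed 24 h with 3 nM 6-alpha-fluorotestosterone present. Reporter mRNA quantified by RT-PCR and capillary electrophoresis; gain versus DMSO.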

[12] = biological target: GAL4 Transcription Factor (Internal Marker), GAL4 (gene 855828) (UniProt P04386); assay: ATG_GAL4_XSP2: Attagene TRANS-FACTORIAL Multi-Species (XSP2) HepG2 Assay for GAL4 Transcription Factor (Internal Marker) (AID 2283814);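 also: GAL4 reporter mRNA background control in MRTU transfected cells not a receptor target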
How it was run: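 HepG2 cells transiently transfected with GAL4-UAS reporter units, stimulated with 3 nM 6-alpha-fluorotestosterone plus 1.5 nM norgestrel, dosed 24 h. Reporter mRNA by RT-PCR/capillary electrophoresis; gain-of-signal fit versus DMSO, background control.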

[13] = test system: turtle Thyroid Hormone Receptor, alpha (TRa), gene 101949057; assay: ATG_trTRa_XSP1: Attagene TRANS-FACTORIAL Multi-Species (XSP1) HepG2 Assay for turtle Thyroid Hormone Receptor, alpha (TRa) (AID 2283806)
How it was run: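 HepG2 cells transiently transfected with GAL4-UAS reporter units and chimeric receptor-Gal4 constructs, with 3 nM 6-alpha-fluorotestosterone present. Reporter mRNA was quantified 24 h after dosing by RT-PCR, 6-FAM labelling and capillary electrophoresis; gain of signal versus DMSO.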

[14] = biological target: Estrogen receptor beta (Homo sapiens) (UniProt Q92731); assay: ATG_hERb_XSP2: Attagene TRANS-FACTORIAL Multi-Species (XSP2) HepG2 Assay for human Estrogen Receptor (ERb) (AID 2283813);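 also: actives raise reporter mRNA above DMSO so AC50 reflects agonist induction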
Sequence of UniProt Q92731 (Q92731 whole entry, looked up, the tested form may be a part): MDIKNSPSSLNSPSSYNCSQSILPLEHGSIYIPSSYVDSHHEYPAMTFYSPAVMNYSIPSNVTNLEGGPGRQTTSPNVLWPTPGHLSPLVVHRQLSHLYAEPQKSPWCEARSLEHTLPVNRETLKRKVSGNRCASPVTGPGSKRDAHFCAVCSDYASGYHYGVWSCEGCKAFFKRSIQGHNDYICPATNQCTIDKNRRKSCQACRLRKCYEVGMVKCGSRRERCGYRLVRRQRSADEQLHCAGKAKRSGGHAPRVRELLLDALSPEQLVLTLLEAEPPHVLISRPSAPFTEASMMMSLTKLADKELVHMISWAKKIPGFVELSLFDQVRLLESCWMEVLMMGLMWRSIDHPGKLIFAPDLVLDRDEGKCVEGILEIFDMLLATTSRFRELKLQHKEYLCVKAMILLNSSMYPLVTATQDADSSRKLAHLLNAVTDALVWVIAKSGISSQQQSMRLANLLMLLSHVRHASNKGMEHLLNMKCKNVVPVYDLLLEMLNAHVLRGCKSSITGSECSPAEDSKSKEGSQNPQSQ
How it was run: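 HepG2 cells transiently transfected with GAL4-UAS reporter units and chimeric human ERb-Gal4, 24 h exposure. Reporter mRNA quantified by RT-PCR with FAM labelling, HpaI digestion and capillary electrophoresis; gain of signal versus DMSO.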

[15] = biological target: zebrafish Estrogen Receptor (ER1), esr1 (gene 259252) (UniProt P57717); assay: ATG_zfER1_XSP2: Attagene TRANS-FACTORIAL Multi-Species (XSP2) HepG2 Assay for zebrafish Estrogen Receptor (ER1) (AID 2283816)
Sequence of UniProt P57717 (P57717 whole entry, looked up, the tested form may be a part): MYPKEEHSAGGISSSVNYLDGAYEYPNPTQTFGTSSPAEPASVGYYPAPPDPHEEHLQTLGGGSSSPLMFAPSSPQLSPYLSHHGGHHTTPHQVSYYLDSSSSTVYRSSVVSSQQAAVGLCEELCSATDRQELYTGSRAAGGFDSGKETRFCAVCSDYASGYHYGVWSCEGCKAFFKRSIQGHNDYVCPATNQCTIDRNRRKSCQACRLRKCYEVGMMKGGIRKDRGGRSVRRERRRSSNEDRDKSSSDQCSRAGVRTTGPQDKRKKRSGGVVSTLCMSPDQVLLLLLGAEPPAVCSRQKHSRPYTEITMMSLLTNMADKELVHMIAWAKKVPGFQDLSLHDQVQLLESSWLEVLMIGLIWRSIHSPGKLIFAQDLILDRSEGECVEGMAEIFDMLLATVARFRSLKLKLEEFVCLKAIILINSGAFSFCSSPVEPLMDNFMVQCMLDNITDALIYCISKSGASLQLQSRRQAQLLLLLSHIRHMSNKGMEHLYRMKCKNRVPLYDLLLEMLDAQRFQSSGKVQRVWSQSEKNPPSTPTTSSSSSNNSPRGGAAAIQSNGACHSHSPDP
How it was run: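 HepG2 cells transiently transfected with a GAL4-UAS reporter and a chimeric zebrafish ER1-Gal4 construct, dosed 24 h. Reporter mRNA quantified by RT-PCR, labelling, HpaI digestion and capillary electrophoresis, relative to DMSO.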

[16] = biological target: Peroxisome proliferator-activated receptor gamma (Homo sapiens) (UniProt P37231); assay: ATG_hPPARg_XSP1: Attagene TRANS-FACTORIAL Multi-Species (XSP1) HepG2 Assay for human Peroxisome Proliferator-activated Receptor gamma (PPARg) (AID 2283800)
Sequence of UniProt P37231 (P37231 whole entry, looked up, the tested form may be a part): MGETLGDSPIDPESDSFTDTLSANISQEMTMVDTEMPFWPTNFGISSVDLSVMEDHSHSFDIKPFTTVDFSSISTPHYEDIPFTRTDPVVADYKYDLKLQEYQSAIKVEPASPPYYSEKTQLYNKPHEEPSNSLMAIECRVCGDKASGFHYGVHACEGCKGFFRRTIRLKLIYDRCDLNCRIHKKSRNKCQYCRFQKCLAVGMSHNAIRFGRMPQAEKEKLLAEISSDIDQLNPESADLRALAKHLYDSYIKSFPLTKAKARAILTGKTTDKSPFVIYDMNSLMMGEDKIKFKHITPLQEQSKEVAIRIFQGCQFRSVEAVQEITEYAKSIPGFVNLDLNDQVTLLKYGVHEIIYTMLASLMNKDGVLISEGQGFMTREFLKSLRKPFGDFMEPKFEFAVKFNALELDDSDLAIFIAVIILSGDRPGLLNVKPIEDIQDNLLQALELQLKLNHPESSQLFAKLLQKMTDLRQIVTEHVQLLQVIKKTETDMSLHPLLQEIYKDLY
How it was run: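 HepG2 cells transiently transfected with GAL4-UAS reporter units carrying chimeric NR-Gal4 proteins; 3 nM 6-alpha-fluorotestosterone present. After 24 h dosing, reporter mRNA quantified by RT-PCR and capillary electrophoresis; gain of signal relative to DMSO.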

[17] = biological target: mouse Peroxisome Proliferator-activated Receptor gamma (PPARg), Pparg (gene 19016) (UniProt P37238); assay: ATG_mPPARg_XSP1: Attagene TRANS-FACTORIAL Multi-Species (XSP1) HepG2 Assay for mouse Peroxisome Proliferator-activated Receptor gamma (PPARg) (AID 2283802)
Sequence of UniProt P37238 (P37238 whole entry, looked up, the tested form may be a part): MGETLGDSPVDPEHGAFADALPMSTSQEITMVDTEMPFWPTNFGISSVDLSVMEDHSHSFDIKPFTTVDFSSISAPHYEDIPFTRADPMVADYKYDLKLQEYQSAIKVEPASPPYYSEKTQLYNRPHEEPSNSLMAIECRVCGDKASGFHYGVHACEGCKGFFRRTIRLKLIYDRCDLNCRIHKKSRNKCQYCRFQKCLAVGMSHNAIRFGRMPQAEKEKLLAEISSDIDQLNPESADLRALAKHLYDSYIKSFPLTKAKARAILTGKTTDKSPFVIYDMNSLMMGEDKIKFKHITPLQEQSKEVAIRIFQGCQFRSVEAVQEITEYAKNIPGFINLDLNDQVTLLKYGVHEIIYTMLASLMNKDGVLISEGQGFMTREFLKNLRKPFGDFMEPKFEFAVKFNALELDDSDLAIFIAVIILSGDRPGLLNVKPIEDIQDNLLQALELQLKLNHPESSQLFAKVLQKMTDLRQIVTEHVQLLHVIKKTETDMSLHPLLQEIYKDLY
How it was run: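 HepG2 cells transiently transfected with GAL4-UAS reporter units driven by mouse PPARg–GAL4 chimera; 3 nM 6-alpha-fluorotestosterone present. After 24 h dosing, reporter mRNA quantified by RT-PCR, fluorescent labelling and capillary electrophoresis; gain of signal versus DMSO.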

Measured: AC50

Cc1c(COC(=O)[C@@H]2[C@H](/C=C(\Cl)C(F)(F)F)C2(C)C)cccc1-c1ccccc1
inconclusive: [1] 100 µM | [3] 100 µM | [4] 0.491 µM | [5] 100 µM | [6] 100 µM | [7] 0.0189 µM | [8] 180 µM
inactive: [2]

CCN(CC)C(=O)C(C)Oc1cccc2ccccc12 (stereo not given)
inconclusive: [1] 100 µM | [10] 27.9 µM | [11] 100 µM | [12] 100 µM | [8] 100 µM
inactive: [9] | [4] | [5]

Oc1cc(Cl)ccc1Oc1ccc(Cl)cc1Cl
active: [13] 11.1 µM | [11] 14 µM | [12] 15.8 µM
inactive: [1] | [9]
inconclusive: [14] 11.1 µM | [8] 2.94 µM | [15] 11.1 µM

CC12CC1(C)C(=O)N(c1cc(Cl)cc(Cl)c1)C2=O (stereo not given)
inconclusive: [10] 100 µM | [3] 100 µM | [5] 100 µM | [8] 3.34 µM and 3.82 µM
inactive: [1] | [4] | [12]

CC(C)NC(=O)N1CC(=O)N(c2cc(Cl)cc(Cl)c2)C1=O
active: [16] 31.3 µM
inconclusive: [9] 100 µM | [2] 100 µM | [3] 25.1 µM | [11] 10 µM | [8] 147 µM
inactive: [1] | [13] | [12]

CCCN(CCC)c1c([N+](=O)[O-])cc(C(F)(F)F)cc1[N+](=O)[O-]
inconclusive: [1] 25.6 µM | [10] 0.534 µM | [4] 100 µM | [8] 100 µM
inactive: [2] | [3] | [13]

C[C@]12CCC(=O)C=C1CC[C@@H]1[C@@H]2CC[C@@]2(C)[C@H]1CC[C@]2(C)O
inconclusive: [1] 0.1 µM | [10] 0.0266 µM | [16] 0.00214 µM | [3] 0.1 µM | [17] 0.00994 µM | [12] 0.0264 µM
inactive: [4]
active: [8] 0.00341 µM
